# According to the supplement of paper PMC3334620:
# Over roughly 33,000 sequences, “E-score (-0.5 to 0.5)” has its median near -0.04; the highest 2% begin near 0.36. This is one part of the list.
# Target: T1, Hmlalpha2 (UniProt P0CY09)
# T1 sequence: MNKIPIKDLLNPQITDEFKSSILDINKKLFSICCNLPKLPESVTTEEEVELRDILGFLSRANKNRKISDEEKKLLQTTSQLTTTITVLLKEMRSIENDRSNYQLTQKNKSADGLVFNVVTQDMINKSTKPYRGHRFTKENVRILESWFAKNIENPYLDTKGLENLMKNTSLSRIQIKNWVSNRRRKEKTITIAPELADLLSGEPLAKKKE
# Assay: PBM E-score (8-mer binding enrichment) (E-score (-0.5 to 0.5)); higher = stronger / more preferred TF binding; most listed sequences are background and not binding sites
# Conditions: protein concentration: 200 nM; construct: GST-full length
# In short: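 Universal all-10-mer Agilent arrays, fresh or stripped once, were converted to double-stranded form by primer extension. GST-tagged yeast transcription factors from PURExpress in vitro transcription/translation, full-length or DNA-binding domain only, were applied at about 100-200 nM and detected with fluorescent anti-GST. After masliner normalisation, the Universal PBM Analysis Suite scored each ungapped eight-base word together with its reverse complement by E-score.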
row,Sequence,PBM E-score
1,AATTACTA,0.257
2,AATTGCTA,-0.0161
3,CTCCTCCC,-0.306
4,CCTTACGC,0.188
5,ACCCCCGT,-0.277
6,CGATACCG,-0.263
7,AAGTAGGA,0.145
8,ACAGGTTC,-0.0405
9,CCCATCGA,-0.126
10,CGATATGA,-0.152
11,GTAAGTGA,0.147
12,ACTTGCTA,0.13
13,CATTAAGA,0.0351
14,GGGCTCTA,-0.128
15,ACATAAAG,0.254
16,AGCAGCCC,-0.14
17,TATGCAGA,-0.0326
18,ATGCACAG,-0.0148
19,CAGTCAAC,-0.0179
20,AAAACAGG,-0.0074
21,AGCCTGAG,-0.242
22,CAGTTTTC,-0.053
23,AATGTCAA,0.182
24,AGACAACC,0.0887
25,GGTCGGAA,-0.0178

row,Sequence,PBM E-score
1,AGGACGTA,0.0452
2,ACCAGGTC,-0.168
3,AGACGAAC,0.094
4,CTCTACAC,0.368
5,ATCACACC,-0.0635
6,CATGTGGA,0.144
7,GGGCTCAC,-0.213
8,GCCACAAA,-0.0235
9,ACGAATCT,0.198
10,CTTGATCA,-0.0419
11,CAGACCGA,-0.144
12,CGATTCAA,-0.0313
13,ATCCGGGA,-0.164
14,GCTCTGAA,-0.0707
15,AGGATATC,-0.0625
16,ATAGTCAC,0.0342
17,AGTGTCCG,-0.0554
18,AAGGTCCC,-0.103
19,ACGGTAAC,0.151
20,CGGCGCTA,-0.179
21,CAAACCGG,-0.101
22,CGCAAACG,0.1
23,ACCAAGGC,-0.0893
24,GCAGATGA,-0.0655
25,CCTATGTA,0.433

row,Sequence,PBM E-score
1,AGCAGGTA,0.0285
2,GTATAGAC,0.135
3,AGGGTAAC,-0.0423
4,CGATGAGA,-0.0765
5,ATTAAATA,0.238
6,CCTGCAAC,-0.0882
7,ATACAGGC,0.0693
8,ATTATCAG,-0.0762
9,AGATGTAC,0.121
10,GTCTGTGA,-0.0585
11,ATGTGCTG,0.126
12,AGTACTGC,-0.11
13,TCCCGGCA,-0.297
14,TCTAACAA,0.0968
15,CCAATCAC,-0.172
16,CTTGTATA,0.289
17,CCACCCCC,-0.299
18,CAAGAAAG,0.0521
19,AGGAACCA,-0.0406
20,CCTTTGCG,-0.12
21,AATTCTAT,0.129
22,GGCCCGTA,0.0883
23,GAGTCGTA,-0.222
24,ACTGAATC,-0.0473
25,GTTGTGTA,0.448

row,Sequence,PBM E-score
1,AGCCCTGA,-0.0785
2,AGGAATCA,-0.00896
3,TGTCAAAA,0.349
4,ACAGTGTC,-0.034
5,CACTTCCC,-0.255
6,ATTTTGGA,0.064
7,AATTGTAT,0.165
8,AAAAAAGG,-0.113
9,CTCTAGGA,-0.287
10,CTGAAATC,-0.0751
11,CTTCACCA,-0.283
12,ACACTCAG,-0.00545
13,AGGAAATA,0.153
14,CCGGCCGC,-0.251
15,CCGTACGA,-0.0889
16,CCCACGTA,0.0709
17,AGTCATGC,-0.173
18,GAAAATCA,0.114
19,CAGGACAA,0.074
20,GATCCGGA,-0.0624
21,ATAGCATC,-0.0228
22,ATACGGCG,-0.169
23,AATTTCGC,-0.119
24,ATATTTAG,0.125
25,AGGAATAC,0.168

row,Sequence,PBM E-score
1,TGGGGCAA,-0.251
2,GCGGTCGA,-0.0746
3,CGGGTATC,-0.27
4,GGGTTATA,0.0187
5,ATACACAG,0.408
6,CATAAAGC,-0.0376
7,CGCCAGAA,-0.259
8,CATTCCAA,0.04
9,TTAGGAAA,-0.0393
10,ACCGGCCC,-0.223
11,AAGCTCCA,-0.23
12,CTAGAAGA,-0.139
13,GATCGTTA,-0.0702
14,ATCAGCTG,-0.0098
15,CCAGGCGA,-0.265
16,CTTCCGAA,-0.099
17,GATGACGA,0.00187
18,AGGACACA,0.228
19,CACCAGAA,-0.0535
20,TCCTAAAA,0.109
21,GCATCGAC,-0.132
22,TAACCCCA,-0.165
23,CGGCCACC,-0.188
24,CCAATGAC,-0.113
25,GGAGACGA,-0.0733

row,Sequence,PBM E-score
1,CCCTTGCA,-0.25
2,CATACGCG,0.177
3,GCCATGAA,-0.121
4,ATGCGGCC,-0.0979
5,GTCAGACA,-0.0835
6,AATTGCTG,-0.0142
7,ATACCAAC,0.178
8,ACACGGCT,0.32
9,AAATAGAT,0.123
10,AGTTAGTG,0.101
11,TATCGGGA,-0.148
12,TGCCAACA,0.174
13,AAACCGTG,-0.038
14,ACTTTTGG,-0.133
15,TATCCATA,-0.0491
16,GCCGCATA,-0.121
17,CCGTTACA,0.314
18,CCTGCAGC,-0.0852
19,CGCCACAG,-0.0887
20,TTATAGAA,0.19
21,AGGCCCAA,-0.164
22,AGCAGTCA,-0.211
23,ATTGAAAG,0.024
24,CCTGTTTC,-0.0968
25,CCGAAATA,0.13

row,Sequence,PBM E-score
1,TGTAGGAA,0.226
2,ACATCCCT,0.174
3,ATGTCCTA,0.0102
4,AAATACCG,0.0656
5,AAGAGCTG,-0.187
6,AGGTTGAA,0.0137
7,CACGTCCC,-0.191
8,AACAAGGG,0.275
9,ATATTTCA,0.0592
10,AAAATGGT,-0.0156
11,CGCATCAA,-0.0674
12,CTCCCAAA,-0.219
13,AAGATCTG,0.101
14,AAACAAAC,0.206
15,CTGATAGC,-0.28
16,CATTCCGA,0.0457
17,GGCTCATA,-0.164
18,TACGACGA,0.0197
19,CAAATCAG,0.0758
20,GGGGCCCA,-0.35
21,ACCCCAAA,-0.14
22,AGCACCTC,-0.0876
